Reference: PubChem BioAssay AID504332 (National Center for Advancing Translational Sciences (NCATS), 2011)
Screen size: about 350,000 compounds; about 31,000 (8.9%) were called active. Inconclusive results, whose numbers are uncertain, are shown with a selection of clear calls. Calls come from the whole dose curve; as a rule, active = well fitted inhibition curve with a large enough effect; inconclusive = small, poorly fitted or top-dose-only effect; inactive = no such curve, though single readings can be large or run the other way. Potencies beside an inconclusive call are fits to weak or partial responses and may not hold up.

target: Histone-lysine N-methyltransferase EHMT2 (Homo sapiens) (UniProt Q96KQ7); assay: qHTS Assay for Inhibitors of Histone Lysine Methyltransferase G9a; conditions: G9a H3K9 monomethylation, AlphaScreen, 2 h; activity, negative = inhibition: at 59 µM (top of the series) unless noted; note: nearly all actives have a fitted effect of over 75% in size
UniProt Q96KQ7, sequence (Q96KQ7 whole entry, looked up): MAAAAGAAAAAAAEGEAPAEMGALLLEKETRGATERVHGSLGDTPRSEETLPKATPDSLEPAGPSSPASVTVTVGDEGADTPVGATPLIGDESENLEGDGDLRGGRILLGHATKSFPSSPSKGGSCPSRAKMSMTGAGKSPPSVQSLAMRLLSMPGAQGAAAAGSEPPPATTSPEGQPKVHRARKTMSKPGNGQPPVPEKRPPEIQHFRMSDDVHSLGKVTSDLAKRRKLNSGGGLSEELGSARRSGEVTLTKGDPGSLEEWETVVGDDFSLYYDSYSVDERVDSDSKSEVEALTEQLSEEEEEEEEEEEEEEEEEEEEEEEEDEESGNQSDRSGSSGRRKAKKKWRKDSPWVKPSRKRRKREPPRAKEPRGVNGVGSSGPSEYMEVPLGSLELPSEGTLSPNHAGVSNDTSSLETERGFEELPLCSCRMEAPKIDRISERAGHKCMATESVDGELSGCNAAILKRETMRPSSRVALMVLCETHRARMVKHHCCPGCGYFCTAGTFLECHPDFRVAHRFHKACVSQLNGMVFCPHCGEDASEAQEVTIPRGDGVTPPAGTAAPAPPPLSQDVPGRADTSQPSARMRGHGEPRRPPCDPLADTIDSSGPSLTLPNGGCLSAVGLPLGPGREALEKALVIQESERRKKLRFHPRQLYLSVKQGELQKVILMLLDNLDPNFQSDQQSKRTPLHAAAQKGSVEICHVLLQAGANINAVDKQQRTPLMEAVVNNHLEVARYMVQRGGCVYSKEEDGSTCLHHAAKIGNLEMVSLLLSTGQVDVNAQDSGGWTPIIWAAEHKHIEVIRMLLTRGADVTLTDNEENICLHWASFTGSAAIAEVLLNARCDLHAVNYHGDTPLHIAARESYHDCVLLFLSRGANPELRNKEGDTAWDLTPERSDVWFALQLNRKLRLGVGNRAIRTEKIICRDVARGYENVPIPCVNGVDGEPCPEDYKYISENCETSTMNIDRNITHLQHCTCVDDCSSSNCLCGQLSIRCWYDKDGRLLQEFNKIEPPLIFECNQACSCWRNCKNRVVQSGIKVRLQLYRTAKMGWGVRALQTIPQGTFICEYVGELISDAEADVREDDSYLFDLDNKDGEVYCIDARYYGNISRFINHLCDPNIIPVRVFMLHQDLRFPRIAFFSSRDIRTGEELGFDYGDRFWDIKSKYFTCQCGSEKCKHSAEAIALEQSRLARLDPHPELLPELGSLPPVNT
How it was run: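 AlphaScreen detection with an anti-monomethyl H3K9 antibody quantified product after a 2 h room-temperature reaction containing 500 nM biotinylated H3K9 peptide, 20 µM SAM and 20 nM enzyme, which had been preincubated 15 min with compound.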
% is set by controls: 0 for no effect and ±100 for the full control effect; potency is the fitted concentration of half-maximal effect; tags give direction and shape of the fitted curve.

SMILES	Potency	activity, negative = inhibition
CC(C(=O)N1CCCC1)N1CCN(S(=O)(=O)c2ccc(C(C)(C)C)cc2)CC1 (stereo not given)	inconclusive: 0.158 µM [inhibitor, full curve, poor fit]	–
O=c1c2c(-c3ccc([N+](=O)[O-])cc3)ccnc2[nH]n1-c1ccccc1	inconclusive: 89.1 µM [inhibitor, single point]	–
CCOC(=O)c1sc(Nc2ccc(Br)cc2)nc1C	inconclusive: 31.6 µM [inhibitor, single point]	–
O=C(Cn1cc(C(=O)C2CCCCC2)c2ccccc21)NCC1CCCO1 (stereo not given)	inconclusive: 39.8 µM [inhibitor, partial curve, poor fit]	–
COc1ccccc1C1CC(=O)n2c(nc(-c3ccccc3)c2-c2ccccc2)S1 (stereo not given)	inconclusive: 0.562 µM [inhibitor, full curve, poor fit]	–
Fc1ccc(-c2ccc(CNCCSc3nnnn3-c3ccccc3)o2)cc1Cl	inconclusive: 14.1 µM [inhibitor, partial curve]	–
CCCCn1c(CCNC(=O)CCC)nc2ccccc21	inconclusive: 20 µM [inhibitor, partial curve, poor fit]	–
Cc1cc(C)n2nc(SC(C)C(=O)N3CCCC3)nc2n1 (stereo not given)	inconclusive: 89.1 µM [inhibitor, single point]	–
O=C1c2cccc3c([N+](=O)[O-])ccc(c23)C(=O)N1c1ccc(Cl)cn1	–	inconclusive: -87.8% [inhibitor]
CCOC(=O)Nc1c(O)ccc2oc(C)c(-c3ccccc3)c12	–	inconclusive: -54.3% [inhibitor]
CSc1nc(-c2ccco2)nn1S(C)(=O)=O	inconclusive: 1 µM [inhibitor, single point]	–
CCOc1nc(-c2ccc(C)cc2)ccc1-c1noc(-c2ccccc2F)n1	inactive	–
Cc1c(Cl)c(-c2n[nH]c(=S)n2-c2ccc(F)cc2)nn1C	inconclusive: 39.8 µM [inhibitor, single point]	–
Cc1ccc(CN2CCN(Cc3ccc(OCCO)cc3)CC2CCO)o1 (stereo not given)	inconclusive: 89.1 µM [inhibitor, partial curve, poor fit]	–
Cc1cc(=O)[nH]c(N/N=C/c2ccccc2C(F)(F)F)n1	inconclusive: 3.55 µM [inhibitor, full curve, poor fit]	–
S=c1[nH]cnc2scc(-c3ccc(Br)cc3)c12	inconclusive: 39.8 µM [inhibitor, partial curve, poor fit]	–
Cc1ccc2nc(N3C(=O)C(O)=C(C(=O)c4ccc(C)o4)C3c3ccco3)sc2c1 (stereo not given)	inconclusive: 3.55 µM [inhibitor, partial curve, poor fit]	–
CCOC(=O)C(NS(=O)(=O)c1ccccc1)(C(F)(F)F)P(=O)(OCC(C)C)OCC(C)C (stereo not given)	active: 10 µM	–
CC(C)Cn1c(N)c(C(=O)COC(=O)c2c(O)c(Cl)cc(Cl)c2Cl)c(=O)n(C)c1=O	–	inactive: -4.26% [at 12.7 µM]
CCN(CC)CCOC(=O)c1ccc(N/C=C(/C#N)c2nc(-c3ccc4c(c3)OCO4)cs2)cc1	inconclusive: 3.55 µM [inhibitor, single point]	–
Cc1ccc(NC(=O)C(OC(=O)c2ccccc2Cl)c2ccccc2)cc1Cl (stereo not given)	inactive	–
O=C(CC1C(=O)N(c2ccccc2)C(=S)N1c1ccccc1)c1ccc(Br)cc1 (stereo not given)	inconclusive: 79.4 µM [inhibitor, single point]	–
O=C(CCNc1ccc(Cc2ccncc2)cc1)c1cccc([N+](=O)[O-])c1	active: 8.91 µM	–
CCOC(=O)C(=O)NNc1ccc(Cl)cc1	inconclusive: 50.1 µM [inhibitor, partial curve, poor fit]	–

SMILES	Potency	activity, negative = inhibition
CCOc1cc(CN2CCN(c3ccc(C(C)=O)cc3)CC2)ccc1OC	active: 31.6 µM	–
CCOc1ccc(CCNC(=O)Cn2ncn3c(cc4ccccc43)c2=O)cc1OCC	inactive	–
O=C(NS(=O)(=O)c1ccccc1Cl)c1ccc[nH]1	active: 79.4 µM	–
CSc1ccc(CCNC(=O)C2CCN(c3nnc(-n4cccc4)s3)CC2)cc1	inconclusive: 89.1 µM [inhibitor, single point]	–
COc1cc(CNc2ccc3[nH]c(=O)[nH]c3c2)ccc1OCc1ccc(F)cc1	inconclusive: 0.501 µM [inhibitor, partial curve, poor fit]	–
Cn1c(SCC(=O)OC2CCCCC2)nnc1-c1ccco1	inconclusive: 22.4 µM [inhibitor, single point]	–
Cc1ccc(C(=O)N(C)CC(=O)Nc2ccc(N3CCOCC3)cc2)s1	inconclusive: 56.2 µM [inhibitor, partial curve]	–
C/C=C/Cn1c(SCCCc2ccccc2)nc2c1c(=O)[nH]c(=O)n2C	active: 44.7 µM	–
CCOC(=O)C(C)On1c(-n2nc(C)cc2C)nc2ccccc2c1=O (stereo not given)	inconclusive: 89.1 µM [inhibitor, single point]	–
Cc1nnsc1C(=O)NNc1ccc(C(C)C)cc1	active: 8.91 µM	–
Cc1cc(/C=C(\C#N)C(=O)NCc2ccco2)c(C)n1C1CCCC1	inconclusive: 15.8 µM [inhibitor, partial curve, poor fit]	–
CCCCNC(=S)NCc1ccc2[nH]c(C)cc2c1	inconclusive: 79.4 µM [inhibitor, single point]	–
Cc1cc(Oc2ccc(N)cn2)cc(C)c1Cl	inconclusive: 89.1 µM [inhibitor, single point]	–
CCOC(=O)c1c2c3c(c(Cl)ccc3[nH]c1=O)C(=O)c1ccccc1-2	inconclusive: 50.1 µM [inhibitor, partial curve]	–
CCN1C(=O)C2(/C(=C(\O)c3ccc4c(c3)OCCO4)C(=O)C(=O)N2CCCOC)c2ccccc21 (stereo not given)	inconclusive: 89.1 µM [inhibitor, single point]	–
Cc1cccc(-c2nc(SCC(=O)NCc3ccco3)c3c(=O)n(C)c(=O)n(C)c3n2)c1	inactive	–
CCOC(=O)c1c(NC(=S)Nc2ccccc2)sc(C)c1C	inconclusive: 20 µM [inhibitor, single point]	–
CSc1ccc(C(=O)C2CCCN(C(=O)Cn3cnnn3)C2)cc1 (stereo not given)	inconclusive: 100 µM [inhibitor, single point]	–
CCN(CCCNC(=O)c1nn(-c2ccc(OC)c(Cl)c2)c(=O)c2c1c1ccccc1n2C)c1cccc(C)c1	inactive	–
Cc1ccc(-n2nnc3c(=O)n(Cc4cccc(C)c4)cnc32)cc1	inactive	–
COC(=O)CCc1sc(NC2CCCCC2)nc1-c1ccc(OC)cc1	active: 12.6 µM	–
CC(=O)Nc1ccc(S(=O)(=O)NCCc2csc(C)n2)cc1	inconclusive: 39.8 µM [inhibitor, single point]	–
Cc1ccc(NC(=O)CCC(=O)c2cccs2)cc1F	inactive	–
S=c1[nH]nc(-c2ccc(Cl)cc2Cl)n1Cc1ccccc1	inconclusive: 8.91 µM [inhibitor, partial curve, poor fit]	–

SMILES	Potency	activity, negative = inhibition
CC(C)(C)N1C(=O)c2ccc(C(=O)NCc3ccco3)cc2C1=O	–	inconclusive: -53.7% [inhibitor]
O=C(O)c1[nH]c2ccc(Cl)cc2c1CC(=O)N1CCN(C(=O)c2ccco2)CC1	–	inconclusive: -88.8% [inhibitor]
CN1OC(CC(=O)O)N(c2ccc(Cl)cc2)C1=O (stereo not given)	inactive	–
Cc1cc(-c2ccco2)n(CC(=O)NCCN(C)C)n1	inconclusive: 89.1 µM [inhibitor, single point]	–
CC1=NN(c2ccc(Br)cc2)C(=O)/C1=C/c1cccs1	active: 7.08 µM	–
COc1ccc(CNC(=O)c2cc(-c3ccc(C)c(C)c3)n[nH]2)cc1	inactive	–
COCCn1c(N)c(N(Cc2ccccc2)C(=O)C2=COCCO2)c(=O)[nH]c1=O	inconclusive: 44.7 µM [inhibitor, partial curve, poor fit]	–
O=C(/C=C/c1ccc(O)c(O)c1)c1ccccc1O	active: 12.6 µM	–
Cc1c([N+](=O)[O-])nnn1-c1cc(Cl)cc(Cl)c1	inactive	–
CCc1c(C)sc(NC(=O)C2c3ccccc3Oc3ccccc32)c1C(=O)OC(C)C	inactive	–
CCc1nnc(NC(=O)C2Cc3ccccc3CN2S(=O)(=O)c2cccs2)s1 (stereo not given)	active: 14.1 µM	–
Brc1ccccc1C1N=C(c2ccccc2)NO1 (stereo not given)	active: 50.1 µM	–
CCCOC(=O)C1=C(C)NC2=C(C(=O)C(C(=O)OC)C(C)C2)C1c1ccc(N(C)C)cc1 (stereo not given)	active: 44.7 µM	–
Clc1ccc(Cl)c(OCCN2CCCC2)c1	active: 50.1 µM	–
CCOCCCNC(=O)CN1C(=O)NC(Cc2c[nH]c3ccccc23)C1=O (stereo not given)	–	inactive: 20.9% [at 2.33 µM]
CCOC(=S)SCC(=O)N1CCc2ccccc2C1C1C(=O)CC(C)(C)CC1=O (stereo not given)	inconclusive: 31.6 µM [inhibitor, single point]	–
CCOc1ccc(CN(C)c2nc(-c3cccnc3)nc3ccccc23)cc1OC	inconclusive: 89.1 µM [inhibitor, single point]	–
Cc1coc2cc3oc(=O)c(CCC(=O)NCC(=O)O)c(C)c3cc12	inconclusive: 1.41 µM [inhibitor, partial curve, poor fit]	–
O=C(O)c1ccc(Nc2nc3ccccc3nc2NS(=O)(=O)c2ccc(F)cc2)cc1	inconclusive: 89.1 µM [inhibitor, single point]	–
c1cnc(Oc2ccc(-c3nnco3)cc2)cn1	inconclusive: 4.47 µM [inhibitor, single point]	–
Cn1cccc1-c1nc2ccc(NC(=O)c3ccco3)cc2[nH]1	inconclusive: 6.31 µM [inhibitor, single point]	–
Cn1cc(C(=O)NS(=O)(=O)Nc2ccc(Br)cn2)c2ccccc21	inconclusive: 79.4 µM [inhibitor, single point]	–
